According to the supplement of paper PMC11417369:
The list shows a part of the results.

Each sequence was assayed on PfAP2-HC AP2 domain (GST-tagged) (assay: gcPBM binding intensity (ln(normalized median fluorescence intensity)); higher = stronger DNA binding).
Procedure, shortened: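 In this array assay, P. falciparum DNA-binding domains with a GST tag, expressed in E. coli, were applied for 1 h to primer-extended double-stranded 36-bp intergenic genomic probes and negative controls on an Agilent 4 × 180k array. Bound protein was visualised with Alexa488 anti-GST antibody at 488 nm. Binding intensity is the highest Masliner-normalised natural-log median intensity across replicate spots of either probe orientation.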

| Sequence | gcPBM binding intensity (ln) |
| --- | --- |
| TTGTATTCATATGGTTGTACATATTAAAAGTTCTAA [XGTACX_site7255] | 9.36 |
| ATAAGGTTACAACAAACACACAAAGGAATATACGCA [CACACA_site4090] | 10.5 |
| AAGAAGAATAGGCGTTGTACGGAATGTAGTAGAGTT [XGTACX_site2430] | 9.93 |
| ATACGACAAATATAAAGTACAAGCTTGGTTTTTATA [XGTACX_site8103] | 9.68 |
| TATGCAAGGAACCACACACACACACGGAAATGTATA [CACACA_site6490] | 10.9 |
| AATTATGGGGAAAAGACACACATATATATATATATA [CACACA_site2589] | 9.79 |
| TTATATATATATGTATGTACTTATAACTTTTATTAG [XGTACX_site3190] | 9.6 |
| ATTCTATAGAAACACACACACATGCATGCACCTATA [CACACA_site107] | 10.7 |
| TTTATTTTTAAAGGCACACACATTTTTATTTTTAAA [CACACA_site2021] | 9.83 |
| TTCTTTTTTTTCAGTTGTACTTATAAGAAAGAAAAA [XGTACX_site4028] | 9.11 |
| TTTATTTATAGAATTACACACATATATACACAAATG [CACACA_site7338] | 9.81 |
| ATATATATAACAAAAGTGCATTAAGGGGATGCTATA | 9.68 |
| TTATTATAAATAGGTAGTACATTTTGAACAAATATT [XGTACX_site8866] | 9.47 |
| AATATAAATATAGGAAATGTAGTTAAAAGGTGTATG [CACACA_negctrl_site1233] | 9.9 |
| TTTTATATATTCAATTGTACATGTATTTTTTTTTTT [XGTACX_site3584] | 9.76 |
| CAAAGACACAAACACACACACACATACATACATACA [CACACA_site453] | 11.3 |
| TATGGGTATGTATTCACACATAACAAAAATATCAAA [CACACA_site5059] | 9.75 |
| ATATATATATATAACACACGCAAAAAAATTAAATAA [CACACA_site1400] | 9.91 |
| TATACTGATAAAAAAAGTACTAGAGTTTGTAAAAAT [XGTACX_site3934] | 9.66 |
| CACAAGAAAGTTCACACACACACATATATATATATA [CACACA_site6009] | 10.1 |
| TTATATGTCAATTTGCGTACATACATAATTACATAT [XGTACX_site1546] | 9.9 |
| AATTTTAATTTTTTGACACACATATAATATATATAT [CACACA_site3978] | 9.78 |
| ATAAATTTACTTGATTGTACATTTCTTAGTTGTATT [XGTACX_site3057] | 9.75 |

| Sequence | gcPBM binding intensity (ln) |
| --- | --- |
| ATTATCTTCAAGTATGTACACACTATATATAATAAA [CACACA_site2441] | 9.79 |
| CTGAGGAAGCTAATTACACACATGCATATTTTTTTT [CACACA_site2177] | 9.92 |
| ATCAAACAAAAAATAAAAAAATGCGACATGTGTACA [TGCATGCA_negctrl_site164] | 9.81 |
| GAAAATTATGTATATTGTACAAATATTATATTAAAT [XGTACX_site2467] | 9.57 |
| TTAATATTTTTAATTTGTACATATAATTAAATCTCT [XGTACX_site1736] | 9.55 |
| TATAAAATTTAAATTATACACACTTAAGTAACATCA [CACACA_site531] | 9.68 |
| CAAGGACAATTTACAAACATAATATATGTATATATA [TGCATGCA_negctrl_site5] | 9.54 |
| TTGAATACATATATATGTACATATTCTATGGTTAGA [XGTACX_site4088] | 9.59 |
| AATATATATTCATGTGTACACACAAAAAAAAATAAA [CACACA_site8690] | 10.5 |
| CCTATAATTAGGGGTAGTACACAAAAAAAAAAAAAA [XGTACX_site6396] | 9.36 |
| AATTCCTTATACAATTGTACATAAAAAGAATAAAAA [XGTACX_site1343] | 9.61 |
| TTAAAAAAGAATTGTGCACACACAAAAAATGTTCAT [CACACA_site1102] | 10.1 |
| TTTTTTTTACATGAACGTACATAATATATTTTATAA [XGTACX_site5249] | 9.42 |
| TGGTGTTTTTTTTAATGTACTTATAAAATAATACAT [XGTACX_site6574] | 9.57 |
| ATGTAAAAATAAAGATGTACATGTATATATATATAT [XGTACX_site5193] | 10.1 |
| AAAAAATATTTTAGTGGTACATTTGTAGCTCTCAAA [XGTACX_site4859] | 9.54 |
| AATCAAATATTTAAATGTACTCAAGAAGGCTTAATC [XGTACX_site6907] | 9.61 |
| ATAACATGAACATATGTTACACAAACATACATACAT [XGTACX_negctrl_site365] | 9.91 |
| AAAAATATAATATAATGTACACAAAAAAAAAAAATC [XGTACX_site1427] | 9.96 |
| TATGAAGACACAAATACACACACTCAAAAAAAAAAA [CACACA_site2660] | 10.1 |
| GAAAAAAAAAAAAAAAAACACACGGTACATTCAAAG [CACACA_site303] | 9.75 |
| AAAAAGAAGATGCAAACATGCACACAGAAAAAAAAA [TGCATGCA_site375] | 10.1 |
| AAAAAAAAAAAAATTACACACATACAGATAATAATA [CACACA_site5244] | 10.1 |

| Sequence | gcPBM binding intensity (ln) |
| --- | --- |
| TTTTTTTTTTGAATATGTACTTAAAAAAATTTTTTT [XGTACX_site3851] | 9.45 |
| CTATTATAAAAATGATGTACACTTATATATACATAT [XGTACX_site6087] | 9.88 |
| TTTTCATTCCACAACGCACACCCATTTAAAAAAAAA [CACACA_site1377] | 9.68 |
| TAATTTTTTTTTTTTTTTTTTTTTTTTTTTTTTTTA [CACACA_negctrl_site1218] | 9.13 |
| TACATACATACATACATACACACATATATATATATA [CACACA_site1996] | 9.83 |
| TACATGTATAATATAATACACACTATATAATATACA [CACACA_site2239] | 9.72 |
| AAATTATAATTAGGAACACACATATATATATATATA [CACACA_site3098] | 9.67 |
| ACAACAATATGGAATTGTACATATATATATAAATAT [XGTACX_site3139] | 9.81 |
| TATTTTTTTGTGTTTGGTACACACGTTATAAAAAAT [XGTACX_site2655] | 9.64 |
| CTAGCAAATACATACACACACACACCCATACATATA [CACACA_site3496] | 10.7 |
| TACACAAAACATAAAAGTACATAATAATAAAGTTAA [XGTACX_site8872] | 9.88 |
| GAACAAATAAAAAGGAGTACAATCAAATCTACGTAT [XGTACX_site343] | 9.91 |
| TAAATAAATACATACACACACATACATATATATATA [CACACA_site3129] | 10.1 |
| TTATTGTTTATTAAATGTACAGATTCGTTAAAATTA [XGTACX_site3041] | 9.19 |
| ATTTGGCATAAACACACACACACACCCACCCACATA [CACACA_site8096] | 10.9 |
| TTTTTATTGAGAACAGTGCAAATAACAAAAAAAAAA | 9.55 |
| TTATAATAAATATGAAGTACTATAAATATGGTATAT [XGTACX_site5448] | 9.75 |
| CACTAAAATGGACACACACACACACCGATATATATA [CACACA_site6139] | 10.5 |
| ATCGCATAAAGACAAGAACACACATATATATTGTAG [CACACA_site9229] | 9.74 |
| AATAAATATAGGAATACACACAATATAAATGTATTG [CACACA_site3366] | 9.86 |
| CATATATAAAATATATGTACTTATAGAACATAATTT [XGTACX_site1936] | 9.48 |
| CATTTTTTAAGCATCACACACGAAAGAACAAAGTGG [CACACA_site4755] | 9.79 |
| TGGAAAATTATAAGGTGTACATATAAGCTATTATAT [XGTACX_site118] | 9.63 |

| Sequence | gcPBM binding intensity (ln) |
| --- | --- |
| TTTTTTTTTTTAAGGTGTACAATAAAAATTTATGCA [XGTACX_site8860] | 9.22 |
| AGTATACATTCATTTTGTACTCAATGATTTGATAAC [XGTACX_site6787] | 9.64 |
| ATAATTATATTCCATACACACATATATTTAAAGGTT [CACACA_site2957] | 9.81 |
| AGGAATAAATAATTAACACACACAATCTTTTTTTTT [CACACA_site9027] | 10.1 |
| TAATAAGTATAAAATAGTACATATAAATATATCAAA [XGTACX_site8834] | 9.75 |
| ACTTTTTCACATAAAAATGATCCGATTAGTAATAAT [XGTACX_negctrl_site248] | 9.45 |
| ATAATATTAGTAAACACACTCAAATTATATATGATA [CACACA_site5721] | 9.75 |
| AAATAAAAAAACTATTGTACTGAATACAAATTAAAT [XGTACX_site3793] | 9.81 |
| CATTATGTTGTAAATACACACATACCTATACATACA [CACACA_site6485] | 9.84 |
| TATTTATTTATATTTACACACATTCATATAAATTCA [CACACA_site7628] | 9.77 |
| TCTGAGAATGATAAAAAAAAAAAAAATGAAAAATTA [CACACA_negctrl_site1478] | 9.27 |
| ACGATATTTTTGGTGACACACATATATATATATATA [CACACA_site126] | 9.8 |
| TTTTTTTTTTTATCTGCACACCCTTTTGTGAATATT [CACACA_site789] | 9.8 |
| ATGCAATAAATATACACACACAAATCTATATTTATA [CACACA_site7179] | 10.5 |
| AATTATTATATATATATATATATATATTTATATATT [GTGCAC_negctrl_site387] | 9.91 |
| AGTTCAAGGATTAAGACACACATATAAATAAATAAA [CACACA_site3662] | 9.79 |
| AAATAAAATAATTATAATACTAAAAATAATACATAA [GTGCAC_negctrl_site106] | 9.75 |
| TTTTTTTTGTAGAATTGTACTTATAAAATATATATA [XGTACX_site2116] | 9.33 |
| AAAAAATGGATGATCACACACTTCATAAAAGTTGCA [CACACA_site7109] | 9.73 |
| AATGAGCGTTAAAAATGTACAGAAAATTGGAATTAT [XGTACX_site5743] | 9.81 |
